We go through 2 molecules from article PMC4335499.

Chains of the proteins cited; added tags and fusions are not shown. Residues count along the entry.
UniProt P11940, residues 95-176: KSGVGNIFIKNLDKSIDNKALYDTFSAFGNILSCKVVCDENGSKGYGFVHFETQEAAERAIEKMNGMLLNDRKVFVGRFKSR
UniProt Q04637, residues 1-260: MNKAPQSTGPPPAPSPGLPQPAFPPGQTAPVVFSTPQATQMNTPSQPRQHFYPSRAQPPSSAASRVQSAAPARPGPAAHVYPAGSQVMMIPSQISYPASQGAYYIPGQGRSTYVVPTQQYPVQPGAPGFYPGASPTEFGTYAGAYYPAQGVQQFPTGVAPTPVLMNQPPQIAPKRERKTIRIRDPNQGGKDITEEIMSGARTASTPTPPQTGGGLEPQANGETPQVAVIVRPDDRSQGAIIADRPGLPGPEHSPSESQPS

Holding throughout (assay): two-hybrid; Pab1/PABP1 constructs fused to the Gal4 DNA-binding domain (pOBD2), eIF4G fragments fused to the Gal4 activation domain (pOAD); yeast strain PJ694a; HIS3 reporter; cells spotted in a dilution series on synthetic complete plates lacking leucine and tryptophan, with or without histidine, 30°C, three days
For assay [1], the target named is Pab1 RRM2 (amino acids 123-204) [E181R, A185K, L186M, P135K, Q194R] (S. cerevisiae) (UniProt P04147).
The target of assay [2] is Pab1 RRM2 (amino acids 123-204) [E181R, A185K, L186M, E176Q, G177E] (S. cerevisiae) (UniProt P04147).
Assay [3] deals with Pab1 RRM2 (amino acids 123-204) [E181R, A185K, L186M, G177E] (S. cerevisiae) (UniProt P04147).
The target in assay [4] is Pab1 RRM2 (amino acids 123-204) L186M (S. cerevisiae) (UniProt P04147).
Assay [5] has as its target Pab1 RRM2 (amino acids 123-204), wild type (S. cerevisiae) (UniProt P04147).
The target of assay [6] is Pab1 RRM2 (amino acids 123-204) [E181R, A185K, L186M] (S. cerevisiae) (UniProt P04147).
Assay [7] deals with Pab1 RRM2 (amino acids 123-204) E181R (S. cerevisiae) (UniProt P04147).
In assay [8] the target is Pab1 RRM2 (amino acids 123-204) [E181R, A185K, L186M, V148A, K180E, D184E] (S. cerevisiae) (UniProt P04147).
Assay [9] has as its target Pab1 RRM2 (amino acids 123-204) A185K (S. cerevisiae) (UniProt P04147).
Assay [10] deals with Pab1 RRM2 (amino acids 123-204) [E181R, A185K, L186M, A158V, T159C] (S. cerevisiae) (UniProt P04147).
In assay [11] the target is human PABP1 fragment (amino acids 95-176), RRM2 (human) (UniProt P11940).

No constants are given. Whether binding was seen depends on the method and setting. Some results given as binding are weak or reduced against the parent protein; the word gives no strength.

As to “human eIF4G1 N-terminus (amino acids 1-260) (from UniProt Q04637 1-260) (domain or fragment)”, the binding entry in assay [1] is given as “no binding”; in assay [2] it was “binds”; in assay [3], “no binding”; in assay [4], “no binding”; in assay [5] it was “no binding”; in assay [6], “no binding”. The binding entry in assay [7] is listed as “binds”; in assay [8] it was “no binding”; in assay [9] it was “no binding”; in assay [10], “no binding”.

B1: yeast eIF4G1 N-terminus (amino acids 1-341) (domain or fragment, UniProt P39935 1-341)
chain: MTDETAHPTQSASKQESAALKQTGDDQQESQQQRGYTNYNNGSNYTQKKPYNSNRPHQQRGGKFGPNRYNNRGNYNGGGSFRGGHMGANSSNVPWTGYYNNYPVYYQPQQMAAAGSAPANPIPVEEKSPVPTKIEITTKSGEHLDLKEQHKAKLQSQERSTVSPQPESKLKETSDSTSTSTPTPTPSTNDSKASSEENISEAEKTRRNFIEQVKLRKAALEKKRKEQLEGSSGNNNIPMKTTPENVEEKGSDKPEVTEKTKPAEEKSAEPEVKQETPAEEGEQGEKGQIKEESTPKVLTFAERLKLKKQQKEREEKTEGKENKEVPVQEETKSAIESAPVP
As for B1, in assay [11], the binding entry was “no binding”.
